Read counts are not given, so values of variants with three or more changes are uncertain.
B1: LINE1-full (parent)
chain: UACGUAGGUGGUUUUCCCCUGAUAGUGCUAAGGGGGCCUGGAAGUUUGGACUGGGCAGAGCUCAACACAGCGUGGCAAAGUGGCUGUGGCUAGACUGCCUCUCUGGAUUCCUCGUCACUCAGCAGGGCAUCUCUGAGAGAAAUGCC

Variants of: B1
Assay: self-cleavage, relative activity (ratio to wild type); higher = more cleavage; in vitro, sequencing; the parent is a self-cleaving ribozyme

Row | Variant | self-cleavage
1 | U87C A129G A142G U143A | 0.3
2 | U87C C101A A124G A142G | 0.15
3 | U87C C113U U119A G126A | 0.15
4 | U87C G89A U130C | 0.05
5 | U87C U96C U102A | 0.52
6 | U87C U96C U132C | 0
7 | U87C U100C A117U | 0.4
8 | U87C U100C U119C A141G | 0
9 | U87C U102C A136G | 0
10 | U87C U104C A124U | 1.97
11 | U87C U108A A138G | 0.11
12 | U87C U109C A124U | 0
13 | U87C U112C U132C | 0.06
14 | U87C U115A U134A | 0.06
15 | U87C U115A U143C | 0.28
16 | U87G A129G U132C | 0
17 | U87G G89A U130C U132C | 0.09
18 | U87G G93U U102C A107G C111A | 0.08
19 | G88A C90A A94G A140G | 0.03
20 | G88A C120A U134A A138G | 0.06
21 | G88A U115C G122C | 0.06
22 | G88A U119A C145U | 0.06
23 | G88A U119C G127C U143C | 0.07
24 | G88U A107U U108C | 0.04

Row | Variant | self-cleavage
25 | G88U G122A G125A A138G | 0.03
26 | G89A U104C U119C | 0.03
27 | C90G U104A U143C | 0.07
28 | C90U U96A A117G | 0.11
29 | U91A A121U A138G | 0.98
30 | U91C A92C C128U U130C | 0.11
31 | U91C A92U A94C A117U | 0.06
32 | U91C A107G A140G | 0.28
33 | U91C A140G A142U | 0.59
34 | U91C G114C A141U | 0.71
35 | U91C U100A C113U | 0.18
36 | U91C U100C A124U | 0.73
37 | U91C U100C U104A | 0.72
38 | U91C U102C C110A | 0.27
39 | U91C U102C U143A | 0.66
40 | U91C U102G C133U | 0
41 | U91C U104A C146U | 0.33
42 | U91C U104C C113G | 1.78
43 | U91C U112A A129U | 0.97
44 | U91C U112C G114U | 0.68
45 | U91C U119C U132C | 0.34
46 | U91C U130C U132C | 0.61
47 | A92C A117G A140G | 0
48 | A92G A138G A142G | 0.07

Row | Variant | self-cleavage
49 | A92G A140G U143C | 0.14
50 | A92G C99U C128U | 0.08
51 | A92G C101U A140G | 0.05
52 | A92G G97A U115C A140G | 0.03
53 | A92G G105U U112A U134C A138G | 0.04
54 | A92G G106U A129U | 0.09
55 | A92G U96A U143C | 0.2
56 | A92G U102C A129G A140G | 0
57 | A92G U104C A124U A129G | 0.46
58 | A92G U112A A140G | 0.29
59 | A92G U115C A129U | 0
60 | A92U A94G A117U U143C | 0.15
61 | A92U A107G A121G | 1.11
62 | A92U A140G A142G | 1.08
63 | A92U C120U G135A A140G | 0.51
64 | A92U U100C A107G | 1.36
65 | A92U U102A A138G | 2.13
66 | G93C G114U U143C | 0.03
67 | G93U U104A U108C | 0.03
68 | A94G A117G A136G | 0
69 | A94G A124U U130C | 0.48
70 | A94G C99U A107G U115C | 0
71 | A94G C99U U119C | 0.15
72 | A94G C103A A140U | 0.16

Row | Variant | self-cleavage
73 | A94G C103U U134A | 0.15
74 | A94G C120U A124G | 0.17
75 | A94G C131U A136U | 0.32
76 | A94G U96A A136G U143A | 0.08
77 | A94G U96A A140G | 0.07
78 | A94G U96A A141G | 0.1
79 | A94G U96A U104C U130C | 0.42
80 | A94G U96C A136G | 0
81 | A94G U100A A121U | 0.18
82 | A94G U102A U104C | 0.97
83 | A94G U102C U109A | 0.46
84 | A94G U104A A121G | 0
85 | A94G U108C G125A | 0.44
86 | A94G U115A A138G | 0.31
87 | A94G U115C A138G | 0
88 | A94G U115G U132C | 1.31
89 | A94G U119C A141G | 0.34
90 | A94G U130A A140G | 0.19
91 | A94G U130C A138G | 0.31
92 | A94G U134C A142G | 0.28
93 | A94U U100C A107G | 0.24
94 | A94U U108C A140G | 0.25
95 | A94U U115C C146U | 0.46
96 | A94U U119C G125U G135A | 0.33

Row | Variant | self-cleavage
97 | C95A U112C U115C | 0.04
98 | C95U U109C A124G | 0.08
99 | U96A A121U A124G | 0.06
100 | U96A A138G G144U | 0.13
101 | U96A C103A U104A A117G | 0
102 | U96A U100C A117G | 0.27
103 | U96A U102A U119C G127A | 0.11
104 | U96A U102G G126A | 0.09
105 | U96A U104A U112C | 0.12
106 | U96A U115A A117G | 0
107 | U96A U119A A124G A142G | 0.03
108 | U96C A107G A141G | 0
109 | U96C A117G A141G | 0
110 | U96C C101U A129U | 0.14
111 | U96C C113A A129U | 0.08
112 | U96C U100C U102C | 0.21
113 | U96C U100C U132C | 0.39
114 | U96C U104C C111A A121U | 0.12
115 | U96C U108C U119A | 0
116 | U96C U109A G127C | 0.14
117 | U96C U109A U115C | 0
118 | U96C U115C C145U | 0.71
119 | U96C U115C U130C | 0
120 | U96C U130C U134A | 0

Row | Variant | self-cleavage
121 | U96C U132C A138G | 0
122 | U96C U132C U143C | 0.14
123 | U96C U134A A138G | 0.07
124 | U96G U115C A142G | 0
125 | G97A A117U A129G | 0.17
126 | C98U U104C A140U | 0.66
127 | C99A U108C A117U | 0.69
128 | C99U C113U A141G | 0.5
129 | C99U U100G A129U | 0.27
130 | C99U U109A G127C | 0.39
131 | C99U U115C A138G | 1.12
132 | U100A A129G U143C | 0.19
133 | U100C A107U A124C A142G | 1.53
134 | U100C A121U A138G | 2.13
135 | U100C A129G A140U | 0.57
136 | U100C A129U G139A | 1.95
137 | U100C A136U G144A | 2.04
138 | U100C A138G A141G | 2.18
139 | U100C A138G A142G | 2.38
140 | U100C C110A U143C | 2.21
141 | U100C G105A C111U A124G | 1.49
142 | U100C G105U A142G | 1.71
143 | U100C G126A C145U | 1.63
144 | U100C G127A U130A A138G | 2.36

Row | Variant | self-cleavage
145 | U100C U104A A136U | 2.73
146 | U100C U108C A138G A141G | 1.67
147 | U100C U109C U112C U134C | 1.02
148 | U100C U112C U119C C123U | 2.88
149 | U100C U115A U134C A141G | 1.84
150 | U100C U119C C120U | 1.03
151 | U100C U132C A136G | 1.25
152 | U100C U134C C146U | 2.44
153 | C101A A107U U119A | 1.22
154 | U102A U104G U112C C116A U143C | 1.62
155 | U102A U112C A124G | 2.81
156 | U102A U112C U134C | 1.5
157 | U102A U132A U143A | 1.05
158 | U102C A124G A136U | 1.2
159 | U102C C103A U143A | 1.89
160 | U102C C103U A117G | 1.65
161 | U102C U108A U115C | 0
162 | U102C U112C A140U | 2.33
163 | U102C U115C U132A | 2.3
164 | U102C U130C U134C | 2.3
165 | U102C U132C A136G | 0
166 | U102C U134C A138C | 1.53
167 | U102G U108C A138G | 0
